Results published in the supplement of paper PMC10126150.
Values marked as one replicate rest on one cluster of the flow cell; about a third of the high ones do not repeat.

Tested on: ATP
Test: switch fluorescence ratio, 500 uM ATP over buffer (Cy3 cluster intensity, sum of 5 cycles each) (fold (ratio)); higher = stronger signal-on switching upon ATP binding; sequences stand for … in TCGTCGGCAGCGTCAGATGTGTATAAGAGACAGTTTTTTTTTTTTTTTTTTTTTTTTT…TC
Conditions: aptamer strand: ATP DNA aptamer (quencher-CACCTGGGGGAGTATTGCGGAGGAAGG + anchor), 100 nM annealed; ATP concentration: 500 uM; one replicate
Procedure, shortened: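 Exposure to 500 uM ATP lasted 15 min at 22 °C before imaging, and a selection-buffer image was taken beforehand, for Cy3-labelled switching-strand clusters on a modified Illumina MiSeq flow-cell annealed to 100 nM quencher-labelled ATP aptamer. Five buffer/ATP cycles were run with NaOH stripping and re-annealing between them. The fluorescence ratio per cluster is summed target-cycle over summed buffer-cycle Cy3 intensity, averaged per switch-domain sequence. Clusters outside 100-1000 RFU were excluded.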

Sequence	switch fluorescence ratio
CTCCTCCCAT	3.5
TATGTGAA	0.964
GTAGTGATGG	1.08
GATTAGTCGA	1
TTGATGGGCT	0.964
ATAGGGATTA	1.03
TCCACCTCTT	1.03
GGCTAGGTTG	0.966
TGCACGCATC	1.48
TGAGAAAGCA	0.988
TAATACTCTA	1.16
AGGGCAGTGC	1.06
GCGCAAAGTA	1.06
TCAGCAGGGT	0.997
ATCTGAACCT	1.96
AACCGATATA	0.985
TGCCACGCTT	0.986
CTGGGTACAA	1.01
GGACTTACCA	1.06
ACTTTATAGC	1.06
CAGTGCATAG	1.02
AATGAGATGG	0.964
TTCAGGCCTA	1.01
TGTGATACGC	1.12
TATGTGGTCC	1.06

Sequence	switch fluorescence ratio
TCGGTCACGG	0.988
CGGCCGCATG	0.981
ATGACCGCTT	1.05
TCGAGGAGCC	1.02
AAACTCAGTG	1.01
GAGGCGATGG	2.02
CGAAAGTGC	1.09
CCTTTCTGCT	1.04
ATTGGATGAC	1.01
TTGAGATGAT	0.982
GTGTATGCGG	1.07
TCTTCTCTGT	1.15
ACCGCCATCC	2.39
GCCTATTGGC	0.993
GTGTTCGCA	0.999
GCCGGGGAAG	0.977
AGAAAGGCAC	0.984
CGAGCAGGCA	0.933
AATTGAGTTT	0.946
TTATCTGT	0.999
CTTGGGACTA	1.02
AGAGGGGCTG	0.954
CGCCCAAATC	2.13
TGAAATTCGG	0.968
CGATGCTCTA	0.967

Sequence	switch fluorescence ratio
CGTGAGCGG	1.02
TGTACAAGAG	1.01
TGAGTGTCTC	1.03
CAGTAGCCCT	1.06
TTTAATCCTA	0.978
GAAGAAAATG	0.964
ATAGGGGTCC	0.978
TTCACGACCT	1.34
GACGGCCAAT	1.21
TAACTTCGCA	2.2
GTGTCTTTGC	0.952
GAGGGTCAG	1
TGAAACCACA	1.08
AATGTAAAGG	0.999
TTAGAGTGAA	0.978
CGCCTATTTT	0.988
CCTAGGTGGA	1.48
TTGGTGAATG	1.02
CGTAGAATAA	0.957
TCTATTTGCT	1.01
CTTGGCATAT	1.27
AGTATGGTAC	1.08
AACCAGTTGG	0.976
GTTCAGCCTT	0.995
TGACCACAAC	1.14

Sequence	switch fluorescence ratio
CTGGGAGTTC	0.975
CTGACGAGAC	4.26
GCAAGGTATT	1.01
GAGCGTTTGT	0.985
GGTGAGCGAC	0.962
CTATTTGAA	1.01
TGGGGTCCGA	0.99
CTCGGTTTGT	0.945
TGCACAGCTT	1.04
TTACTTGGGG	1.02
GGAATCGCGT	1.05
TTTATATAGG	1.12
GGATCAGCCC	1.05
GCGTAACGTC	1
CCCCCTTTTT	1.83
TGTCCCCCA	1.09
AAGCCTATCA	1.03
CTCATACGGA	1.07
CTCGGCGCCC	1.19
GTGCCTAGTT	1.01
AGATCTGGTC	1.02
AATCCTGGAC	1.1
CACATGCCGA	1.01
GCAAGAAGCG	1.02
GAGTTATAGG	1.02

Sequence	switch fluorescence ratio
ACCTAGGTAT	0.965
GGGCTAACGG	1.02
GGGAAGGATG	0.987
AAACTTTGAC	1.05
CATTTTATTA	1.03
GTCCTCGGAA	1.73
ATGTGTGTGC	0.987
GCCCTCGTGG	1.03
AACGTGCGGG	0.972
TTTAAAGAGC	0.956
AAGTCTATGC	1.01
AAGCACAAAC	1.38
TGGCAAAGGG	0.955
AATTCGACCA	1.03
TCTGCGTATC	1.21
ACTTTGGTGA	0.976
GTCTCAAAAT	1.03
TAGTTAACCG	1
TACATTTTCC	1.11
GTTTTAGCTC	0.944
GTACTAATCC	0.983
GTTCAGACCG	1.01
CTAAACAGCT	0.971
TGAGTTAAGA	0.99
CATCTGTGGC	1.2

Sequence	switch fluorescence ratio
GTGCCTAGGG	0.975
AAGAGCGTAG	0.969
ACGAGTCAGT	0.952
GCTTCGGGGA	1.02
CTAATCTTGG	1.02
CCTGGGCTAT	1.09
CCCGTCAGAT	1.15
AGATACGGGG	1.01
TAGTGAGA	1
AGCGTAATTC	1
ATTTTTCCTT	1.01
TGTAAAGAGA	0.978
CTCATATGAG	1.04
GGTAATGGGC	0.999
GCTCTGGATG	1.12
AAGGGTTTCC	1.02
AGGGGCGGCA	0.979
AACTTAAGAT	0.987
GAGTGTCGGG	1.05
TGACGTGGGC	1.14
GGTCATTCTG	0.993
GGTAGGAGGC	0.968
CATCAAGCCT	1.15
AATCGTAGGA	1.05
CGACTAGGTT	1

Sequence	switch fluorescence ratio
AAGGTCGCCT	0.984
CGTGGCGCTG	0.983
GGAATTGAAT	1.02
AGACGGGCT	1.03
AACTCGACAA	1.16
CAGTGTGTTA	1.01
GCGAATAGGT	0.982
AATTCTTGGT	0.983
AATAAGACAG	1
ATGGCAAGAG	1.21
TAAAACTCGA	1
GCCAACCCCT	1.07
CTGTCGGC	1.02
AAATTATCCG	0.979
TACATCTATG	1.01
TTTGTAGT	1.14
AGCGGTGTCA	1.02
TTGAGTTAA	0.989
CATGGATTCA	0.994
CGTAACTGCG	0.981
AGAAAGGATC	1.01
GTTTTTAGGA	0.961
TTATAGGTAG	1.01
CGCGCCAATC	3.17
GCCGACTTTC	1.02

Sequence	switch fluorescence ratio
GTAGTATGGT	1.03
AGGATCTACC	1.27
ACGAAGTATA	0.989
TTGCAGGATC	1.02
CGGTTATACC	0.95
GGGCGACATA	1.06
GCACGGTTCG	0.975
AAAATAAGCC	1.03
GTTCGAATTT	0.997
TTCTCATTAC	1.32
GGCAAATGCA	0.999
TTATCCCAAT	1.13
CTGAGACTGT	1.02
TGATATTGAC	1.07
GGACGAATCC	1.02
TATGAAATTG	1.01
CAGTTACTTT	1.02
GATTATCCAG	1.01
GACGGCTAGT	1.03
TCATCTTTTA	1.04
ACATGTGAAT	0.971
GAGTAAGGTT	0.98
TTACAGGCTG	1.03
TCGTTCCAGC	1.01
GTGACATTCT	1.02
